The campaign covered roughly 48,000 compounds. About 550 (1.1%) were called active. Not shown: some 4% with an inconclusive outcome. Cut-off read from the data, not from the text of the source: active = potency below about 15 µM; inconclusive = mostly about 16 µM to 33 µM; inactive = weaker than that. The list shows a part of the results.
Each molecule was assayed against Lysosomal acid glucosylceramidase (Homo sapiens) (UniProt P04062) (assay: Glucocerebrosidase). Conditions: purified enzyme, resorufin glucoside fluorescence (screen aimed at inhibitors), 20 min.
Chain of UniProt P04062 (P04062 whole entry, looked up): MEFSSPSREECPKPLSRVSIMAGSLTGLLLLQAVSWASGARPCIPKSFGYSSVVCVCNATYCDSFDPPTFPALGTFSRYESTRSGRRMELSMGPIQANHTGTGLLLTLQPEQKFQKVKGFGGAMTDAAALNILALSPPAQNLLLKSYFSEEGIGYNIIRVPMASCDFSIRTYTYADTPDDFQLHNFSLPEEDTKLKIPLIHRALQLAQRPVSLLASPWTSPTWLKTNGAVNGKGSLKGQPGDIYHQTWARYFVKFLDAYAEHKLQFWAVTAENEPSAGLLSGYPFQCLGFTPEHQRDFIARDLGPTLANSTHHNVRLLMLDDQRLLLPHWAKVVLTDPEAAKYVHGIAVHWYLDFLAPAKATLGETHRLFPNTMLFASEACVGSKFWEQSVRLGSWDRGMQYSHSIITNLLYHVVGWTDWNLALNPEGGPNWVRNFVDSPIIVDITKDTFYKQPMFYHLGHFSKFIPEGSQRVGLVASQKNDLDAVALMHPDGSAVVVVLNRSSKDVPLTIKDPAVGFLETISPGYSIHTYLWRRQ
How it was run: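 Wild-type enzyme at 0.2 nM final in 50mM citric acid/KH2PO4, 10mM sodium taurocholate, 0.01% tween-20, pH 5.9, with resorufin beta-D-glucopyranoside at 30 uM final. Compounds titrated, 20 min at RT, red fluorescence read; AC50 from titration.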
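Note: the screen sought inhibitors.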
Potency is the fitted concentration of half-maximal effect.

Potency, inactive:
CC(=O)N1CCN(c2ccc(N=Cc3c(O)n(Cc4ccccc4)c(=O)[nH]c3=O)cc2)CC1 > 76.9 µM
COCCn1c(SCC(=O)c2cccc(OC)c2)nnc1-c1ccco1 > 76.9 µM
Cc1cc(NC(=O)CSc2nnc(C3CC3)n2N)no1 > 76.9 µM
COc1ccccc1NC(=O)CSc1nccc(=O)[nH]1 > 76.9 µM
CCN(CC)c1ccc2c(c1)OC(N)=C(C#N)C2c1cccnc1 (centres undefined) > 76.9 µM
CC(=O)OCCCCON1C(=O)c2ccccc2C1=O > 76.9 µM
COc1cc2c(cc1OC)-c1nnnn1C(C)(C)C2 > 76.9 µM
CC1CCCCN1C(=O)Cn1cc(C(=O)c2ccco2)c2ccccc21 (centres undefined) > 76.9 µM
CCCN1C(=O)c2ccc(C(=O)NCc3ccco3)cc2C1=O > 76.9 µM
COc1ccccc1-c1cc(C(F)(F)F)nc(N2CCOCC2)n1 > 76.9 µM
O=C(CN1C2CCC1CC(NC(=O)NC1CCCCC1)C2)NC1CC1 (centres undefined) > 76.9 µM
Cc1ccc(/C(O)=C2\C(=O)C(=O)N(CC(C)O)C2c2cccc(F)c2)cc1 (centres undefined) > 76.9 µM
Cn1c(=O)c2c(ncn2CC(=O)Nc2nnc(Cc3ccccc3)s2)n(C)c1=O > 76.9 µM
CCN(CC)c1ccc(C(=O)OCC(=O)N2CCN(c3ccccc3)CC2)cc1 > 76.9 µM
Cc1cc(Nc2ccccc2)n(C(=O)c2ccc(N)cc2)n1 > 76.9 µM
Cn1cc(S(=O)(=O)CC(=O)Nc2ccc3c(c2)OCCO3)c2ccccc21 > 76.9 µM
CC1Cc2ccccc2N1C(=O)CCNS(=O)(=O)c1ccc2c(c1)CCC(=O)N2 (centres undefined)
O=C(CSc1nnc(-c2ccco2)o1)N1CCOCC1 > 76.9 µM
CN(C)S(=O)(=O)c1cccc(C(=O)Nc2cccnc2)c1 > 76.9 µM
COc1ccc2nc(NC(=O)c3ccc(-n4nc(C)cc4C)cc3)sc2c1 > 76.9 µM
O=C(COc1ncnc2sccc12)N1CCc2ccccc2C1 > 76.9 µM
CN(C)c1ccc(C(=O)OCC(=O)NC2CCCCC2)cc1 > 76.9 µM
Cc1nc2nc[nH]n2c(=O)c1NC(=O)c1cccc(OCC(C)C)c1 > 76.9 µM
COc1cc(OC)cc(C(=O)Nn2c(C)nc3ccccc3c2=O)c1 > 76.9 µM
CCN(CCNC(=O)c1cccc(N2CCCC2=O)c1)c1ccccc1 > 76.9 µM
Cc1cc(NC(=O)c2cc(-c3ccncc3)nc3c(C)cccc23)no1 > 76.9 µM
COc1ccc(S(=O)(=O)NCc2ccccn2)cc1Cl > 76.9 µM
COCCN(CCOC)c1ncnc2c1cnn2-c1ccc(Cl)cc1 > 76.9 µM
Cc1nnc2n(CCc3ccccc3)c(=O)c3c4c(sc3n12)CCCC4 > 76.9 µM
COc1ccc(NC(=O)NCc2cccn2C)c(OC)c1 > 76.9 µM
COc1ccc(CNC(=O)C2C3C=CC4(CN(Cc5cccnc5)C(=O)C24)O3)cc1 (centres undefined) > 76.9 µM
Cc1csc(NC(=O)c2nc(-c3ccccc3)n(-c3ccccc3)n2)n1 > 76.9 µM
Cn1c(-c2ccc(F)cc2)cnc1SCC(=O)NCc1ccco1 > 76.9 µM
CCOC(=O)c1cnn2c(N)c(C#N)nnc12 > 76.9 µM
Cc1nc2nc(COc3ccccc3)[nH]n2c(=O)c1Cl > 76.9 µM
COc1ccc(OCCOC(=O)c2cccc(-n3cnnn3)c2)cc1 > 76.9 µM
Cn1c(=O)c2ncn(CC(=O)Nc3cc(C(F)(F)F)ccc3N3CCOCC3)c2n(C)c1=O > 76.9 µM
CCOC(=O)c1cc2sccc2n1Cc1ccccc1 > 76.9 µM
O=C1OC(c2ccccc2)=C/C1=C\N1CCOCC1 > 76.9 µM
Cc1nn(Cc2ccccc2)c2sc(C(=O)NCc3cccnc3)cc12 > 76.9 µM
Cc1cccc(NC(=O)CSc2nnc(-c3ccccc3C)o2)c1 > 76.9 µM
CN1C(=O)C2CN(CCc3ccccc3)CNC2N(C)C1=O (centres undefined) > 76.9 µM
CCOc1ccc(OCC)c(NS(=O)(=O)c2cccc3nsnc23)c1 > 76.9 µM
COc1ccc(C)cc1NC(=O)C1CC(=O)N(Cc2ccco2)C1 (centres undefined) > 76.9 µM
COc1ccc(C(CC(=O)O)NC(=O)COc2ccccc2)cc1OC (centres undefined) > 76.9 µM
CC(=O)Nc1cccc(Oc2cc(C#N)c(C#N)cc2N2CCCCCC2)c1
O=C(c1ccc(-c2ccccc2)cc1)N1CCC(C(=O)N2CCCC2)CC1 > 76.9 µM
COc1ccc(NC(=O)CCN2CCCCCC2)c(OC)c1 > 76.9 µM
O=S(=O)(c1ccc(OCC(O)CN2CCN(c3ccccc3O)CC2)cc1)N1CCOCC1 (centres undefined) > 76.9 µM
CCC1Oc2ccc(C)cc2N(CC(=O)NCCC2=CCCCC2)C1=O (centres undefined) > 76.9 µM
CC(C)(C)C1CCc2[nH]nc(C(=O)O)c2C1 (centres undefined) > 76.9 µM
CSC1=NC2(CCCCC2)C2=C(CCCC2)N1 > 76.9 µM
Cc1ccc(N2CC(C(=O)Nc3nnc(C(C)C)s3)CC2=O)cc1 (centres undefined) > 76.9 µM
COc1ccc2sc(NC(=O)CC(C)C)nc2c1 > 76.9 µM
COCCOC(=O)C1=C(C)Nc2ncnn2C1c1ccc(F)cc1 (centres undefined) > 76.9 µM
O=C(COC(=O)c1cccc(C(=O)OCC(=O)NC2CCCCC2)n1)NC1CCCCC1 > 76.9 µM
COc1cc(OC)cc(-c2cc3nc4c(c(N5CCN(c6ncccn6)CC5)n3n2)CCCC4)c1 > 76.9 µM
CCn1c(=O)cc(SCC(=O)N2CCN(c3ccccn3)CC2)c2ccccc21 > 76.9 µM
COc1cc(C(=O)O)cc(Br)c1OC1CCCC1 > 76.9 µM
